The results in this text go back to a collection of fitness landscapes (doi:10.1126/science.1257360).

The other results are listed elsewhere or left out.

First the molecules themselves.
B1: PhoQ; a variant is named by its letters at X, in order, P23837 (parent)
chain: MKKLLRLFFPLSLRVRFLLATAAVVLVLSLAYGMVALIGYSVSFDKTTFRLLRGESNLFYTLAKWENNKLHVELPENIDKQSPTMTLIYDENGQLLWAQRDVPWLMKMIQPDWLKSNGFHEIEADVNDTSLLLSGDHSIQQQLQEVREDDDDAEMTHSVAVNVYPATSRMPKLTIVVVDTIPVELKSSYMVWSWFIYVLSANLLLVIPLLWVAAWWSLRPIEALAKEVRELEEHNRELLNPATTRELTSLVRNLNRLLKSERERYDKYRTTLTDLTHSLKTPLXXLQXXLRSLRSEKMSVSDAEPVMLEQISRISQQIGYYLHRASMRGGTLLSRELHPVAPLLDNLTSALNKVYQRKGVNISLDISPEISFVGEQNDFVEVMGNVLDNACKYCLEFVEISARQTDEHLYIVVEDDGPGIPLSKREVIFDRGQRVDTLRPGQGVGLAVAREITEQYEGKIVAGESMLGGARMEVIFGRQHSAPKDE

The variants in this test derive from B1. Description: enrichment ratio after two sorts for PhoP signalling (ratio (wild type AVST 3.29)); higher = more functional. The following applies: with PhoP (E. coli).
For HITA, the enrichment ratio was ≤ 0.25.
Consider QVWW, for which the enrichment ratio was determined as 2.54.
The figure for PDDY is ≤ 0.25.
Regarding ASRP, the enrichment ratio was ≤ 0.25.
The figure for HDQM is ≤ 0.25; for EDPD it is ≤ 0.25; for ILIG it is ≤ 0.25.
Regarding NQDL, the enrichment ratio was ≤ 0.25.
Next, WDFH: ≤ 0.25.
Turning to WILA, the enrichment ratio was ≤ 0.25.
The figure for WTCK is ≤ 0.25.
Next, YRIL: ≤ 0.25; PYIK: ≤ 0.25.
On to DAND, for which the enrichment ratio is ≤ 0.25.
The figure for DSAD is ≤ 0.25; for YAPS it is 0.949.
On to DTPE, for which the enrichment ratio is ≤ 0.25.
The figure for ITIY is ≤ 0.25.
Next, YYSS: ≤ 0.25; TYWY: ≤ 0.25.
Next, RCCK: 2.03.
As for LCAF, the enrichment ratio was ≤ 0.25.
With IWKC, the enrichment ratio is ≤ 0.25.
Next, DGMG: ≤ 0.25; LCGW: ≤ 0.25; HMAN: ≤ 0.25.
The figure for EMAA is ≤ 0.25; for PCGY it is ≤ 0.25.
Next, PEIP: ≤ 0.25; MNKG: ≤ 0.25.
In the case of VICA, the enrichment ratio was ≤ 0.25.
On to YNHC, for which the enrichment ratio was ≤ 0.25.
The figure for LWKC is ≤ 0.25; for VIYC it is ≤ 0.25.
Turning to AWEY, the enrichment ratio was ≤ 0.25.
The figure for PIQE is ≤ 0.25.
The figure for RTSS is ≤ 0.25; for KYTP it is ≤ 0.25; for WGGD it is ≤ 0.25.
Regarding FWLL, the enrichment ratio is ≤ 0.25.
Consider VDYN, for which the enrichment ratio was ≤ 0.25.
Consider MFNV, for which the enrichment ratio is ≤ 0.25.
Next, KTLE: ≤ 0.25; EKVL: ≤ 0.25.
Next, LWPF: ≤ 0.25; FYQT: ≤ 0.25; ICMW: ≤ 0.25.
Next, AWMC: ≤ 0.25; LGLD: ≤ 0.25; GFDH: ≤ 0.25.
In the case of LNGC, the enrichment ratio was ≤ 0.25.
Next, SWDP: ≤ 0.25; APPA: ≤ 0.25; SRLH: ≤ 0.25.
The figure for EMAF is ≤ 0.25; for KCSI it is ≤ 0.25.
Next, EFST: ≤ 0.25.
As for YAQL, the enrichment ratio is ≤ 0.25.
The figure for DCKF is ≤ 0.25; for TMYL it is ≤ 0.25; for FMGA it is ≤ 0.25.
The figure for SSVI is 10.3; for GWKF it is ≤ 0.25.
Next, NNDP: ≤ 0.25.
As for DDRN, the enrichment ratio is ≤ 0.25.
The figure for AMHS is ≤ 0.25; for VEVG it is ≤ 0.25.
PWTL: the enrichment ratio is ≤ 0.25.
Next, FHAA: ≤ 0.25; MRLR: ≤ 0.25; LKNG: ≤ 0.25.
Next, KHVP: ≤ 0.25; NFYW: ≤ 0.25.
The figure for RTWL is ≤ 0.25.
Consider SWQN, for which the enrichment ratio was ≤ 0.25.
The figure for PYYQ is ≤ 0.25.
The figure for DYQR is ≤ 0.25; for LMHK it is ≤ 0.25; for EFLY it is ≤ 0.25.
Next, RCLC: ≤ 0.25; RTET: ≤ 0.25; FYPL: ≤ 0.25.
For EPRS, the enrichment ratio was ≤ 0.25.
On to GCAP, for which the enrichment ratio is ≤ 0.25.
Regarding FDLC, the enrichment ratio was ≤ 0.25.
The figure for MTIF is ≤ 0.25; for VFTW it is ≤ 0.25.
Next, VEIP: ≤ 0.25; PMAQ: ≤ 0.25; DIEG: ≤ 0.25.
For FHVP, the enrichment ratio was ≤ 0.25.
Next, LSWV: 1.23; WLLI: ≤ 0.25.
Next, VSWK: ≤ 0.25; IVGI: ≤ 0.25; VWCT: ≤ 0.25.
For the variant GDCA, the enrichment ratio was ≤ 0.25.
The figure for QASI is 12.8.
The figure for HPGP is ≤ 0.25; for MQDQ it is ≤ 0.25; for AVSI it is 13.1.
The figure for VSMY is ≤ 0.25; for TYHH it is ≤ 0.25.
Regarding HYSM, the enrichment ratio was ≤ 0.25.
Take LTRN: the enrichment ratio is ≤ 0.25.
Next, NACW: ≤ 0.25.
The figure for QRSA is ≤ 0.25; for STFE it is ≤ 0.25.
Next, ASGN: 4.65; PHPS: ≤ 0.25.
Consider KDDN, for which the enrichment ratio was ≤ 0.25.
The figure for IKHH is ≤ 0.25.
Next, TEGP: ≤ 0.25.
Turning to LKAA, the enrichment ratio is ≤ 0.25.
For the variant LRMC, the enrichment ratio was ≤ 0.25.
On to MCPY, for which the enrichment ratio was ≤ 0.25.
Next, SEKS: ≤ 0.25; DHER: ≤ 0.25; VRRG: ≤ 0.25.
The figure for WGYV is ≤ 0.25; for TTTS it is 14.1.
For the variant FFQH, the enrichment ratio is ≤ 0.25.
The figure for WRWM is ≤ 0.25.
Next, DWFM: ≤ 0.25.
The figure for VRRV is ≤ 0.25; for LNTY it is ≤ 0.25.
As to NMRW, the enrichment ratio is ≤ 0.25.
The figure for FGCF is ≤ 0.25; for DYLI it is ≤ 0.25; for YAYK it is ≤ 0.25.
The figure for LYQD is ≤ 0.25; for HPSY it is ≤ 0.25.
Turning to KGWD, the enrichment ratio was ≤ 0.25.
Next, PQKT: ≤ 0.25; VTLE: 3.68; NKMH: ≤ 0.25.
Take WRQH: the enrichment ratio was ≤ 0.25.
The figure for RHSK is ≤ 0.25.
Regarding CQSH, the enrichment ratio was ≤ 0.25.
The figure for RNPK is ≤ 0.25.
The figure for GTLP is ≤ 0.25; for IGEW it is ≤ 0.25; for DSRP it is ≤ 0.25.
Next, PAFN: ≤ 0.25; VARD: ≤ 0.25; TIWS: 15.7.
As for HIHQ, the enrichment ratio is ≤ 0.25.
The figure for EHFQ is ≤ 0.25.
The figure for MGIA is ≤ 0.25; for YFQR it is ≤ 0.25.
Take PNHY: the enrichment ratio was ≤ 0.25.
Consider AVFL, for which the enrichment ratio was ≤ 0.25.
Next, YWSD: ≤ 0.25.
